{"source": "patent US7160888B2", "about": "“[1,8]naphthyridin-2-ones and related compounds for the treatment of schizophrenia” (Warner Lambert Company LLC, priority 2003, dated 2007)", "data": [{"target": "dopamine D2 receptor (Homo sapiens, UniProt P14416)", "sequence (P14416 whole entry)": "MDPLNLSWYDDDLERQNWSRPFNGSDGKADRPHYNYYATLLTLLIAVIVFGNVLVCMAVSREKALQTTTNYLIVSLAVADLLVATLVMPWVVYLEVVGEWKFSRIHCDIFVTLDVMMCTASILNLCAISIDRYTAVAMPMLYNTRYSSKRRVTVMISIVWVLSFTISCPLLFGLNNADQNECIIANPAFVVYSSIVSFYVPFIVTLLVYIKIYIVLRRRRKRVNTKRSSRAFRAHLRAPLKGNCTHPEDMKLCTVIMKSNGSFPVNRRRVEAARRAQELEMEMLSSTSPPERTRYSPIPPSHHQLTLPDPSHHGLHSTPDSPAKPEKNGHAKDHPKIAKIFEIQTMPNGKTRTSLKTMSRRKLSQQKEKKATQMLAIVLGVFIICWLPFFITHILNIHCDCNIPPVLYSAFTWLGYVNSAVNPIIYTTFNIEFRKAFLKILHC", "test": "biochemical", "settings": "D2 Ki (nM), Table 1; 0.4 nM [3H]spiperone, CHO-hD2L membranes", "units": {"Ki": "nM"}, "values": [{"smiles": "O=c1ccc2ccc(OCCCCN3CCN(c4cccc(F)c4Cl)CC3)nc2[nH]1", "note": "[Example B28, 7-{4-[4-(2-Chloro-3-fluoro-phenyl)-piperazin-1-yl]-butoxy}-1H-[1,8]naphthyridin-2-one]", "Ki": 1.4}, {"smiles": "O=C1c2c(cccc2N2CCN(CCCCOc3ccc4ccc(=O)[nH]c4n3)CC2)CCC1(F)F", "note": "[Example B38, 7-{4-[4-(7,7-Difluoro-8-oxo-5,6,7,8-tetrahydro-naphthalen-1-yl)-piperazin-1-yl]-butoxy}-1H-[1,8]naphthyridin-2-one]", "Ki": 0.6}, {"smiles": "CN1Cc2ccc(OCCCCN3CCN(c4cccc(Cl)c4Cl)CC3)nc2NC1=O", "note": "[Example F7, 7-{4-[4-(2,3-Dichloro-phenyl)-piperazin-1-yl]-butoxy}-3-methyl-3,4-dihydro-1H-pyrido[2,3-d]pyrimidin-2-one]", "Ki": 0.5}, {"smiles": "O=c1ccc2cnc(NCCCCN3CCN(c4cccc(Cl)c4Cl)CC3)cc2[nH]1", "note": "[Example I18, 7-{4-[4-(2,3-Dichloro-phenyl)-piperazin-1-yl]-butylamino}-1H-[1,6]naphthyridin-2-one]", "Ki": 1.6}, {"smiles": "O=C1CCc2ccc(OCCCCN3CCN(c4ccccn4)CC3)nc2N1", "note": "[Example A43, 7-[4-(4-Pyridin-2-yl-piperazin-1-yl)-butoxy]-3,4-dihydro-1H-[1,8]naphthyridin-2-one]", "Ki": 52}, {"smiles": "CCc1cccc(N2CCN(CCCCCc3ccc4c(n3)NC(=O)CC4)CC2)n1", "note": "[Example C17, 7-{5-[4-(6-Ethyl-pyridin-2-yl)-piperazin-1-yl]-pentyl}-3,4-dihydro-1H-[1,8]naphthyridin-2-one]", "Ki": 20.5}, {"smiles": "CC1(C)CC(=O)Nc2nc(OCCCCN3CCN(c4cccc(C5CC5)n4)CC3)ccc21", "note": "[Example D22, 7-{4-[4-(6-Cyclopropyl-pyridin-2-yl)-piperazin-1-yl]-butoxy}-4,4-dimethyl-3,4-dihydro-1H-[1,8]naphthyridin-2-one]", "Ki": 5.2}, {"smiles": "CCOc1ccccc1N1CCN(CCCCOc2ccc3c(n2)NC(=O)CC3)CC1", "note": "[Example A20, 7-{4-[4-(2-Ethoxy-phenyl)-piperazin-1-yl]-butoxy}-3,4-dihydro-1H-[1,8]naphthyridin-2-one]", "Ki": 0.7}, {"smiles": "CC(=O)c1c(F)cccc1N1CCN(CCCCOc2ccc3ccc(=O)[nH]c3n2)CC1", "note": "[Example B5, 7-{4-[4-(2-Acetyl-3-fluoro-phenyl)-piperazin-1-yl]-butoxy}-1H-[1,8]naphthyridin-2-one]", "Ki": 3}, {"smiles": "O=C1CCc2ccc(CCCCCN3CCN(c4ccc(F)cc4Cl)CC3)nc2N1", "note": "[Example C14, 7-{5-[4-(2-Chloro-4-fluoro-phenyl)-piperazin-1-yl]-pentyl}-3,4-dihydro-1H-[1,8]naphthyridin-2-one]", "Ki": 65.5}, {"smiles": "CC(=O)c1ccc(N2CCN(CCCCOc3ccc4c(n3)NC(=O)CC4)CC2)c2ccccc12", "note": "[Example A81, 7-{4-[4-(4-Acetyl-naphthalen-1-yl)-piperazin-1-yl]-butoxy}-3,4-dihydro-1H-[1,8]naphthyridin-2-one]", "Ki": 24.7}, {"smiles": "O=C1CCc2ccc(CCCCCN3CCN(c4cccc5c4CCCC5)CC3)nc2N1", "note": "[Example C12, 7-{5-[4-(5,6,7.8-Tetrahydro-naphthalen-1-yl)-piperazin-1-yl]-pentyl}-3,4-dihydro-1H-[1,8]naphthyridin-2-one]", "Ki": 13.5}, {"smiles": "Cc1nc(OCCCCN2CCN(c3cccc4ccccc34)CC2)nc2[nH]c(=O)ccc12", "note": "[Example H12, 4-Methyl-2-[4-(4-naphthalen-1-yl-piperazin-1-yl)-butoxy]-8H-pyrido[2,3-d]pyrimidin-7-one]", "Ki": 1}, {"smiles": "Cc1c(Cl)cccc1N1CCN(CCCCOc2ccc3c(n2)NC(=O)CC3(C)C)CC1", "note": "[Example D21, 7-{4-[4-(3-Chloro-2-methyl-phenyl)-piperazin-1-yl]-butoxy}-4,4-dimethyl-3,4-dihydro-1H-[1,8]naphthyridin-2-one]", "Ki": 12.5}, {"smiles": "Cc1nc(OCCCCN2CCN(c3cccc4ccc(F)cc34)CC2)nc2c1ccc(=O)n2C", "note": "[Example H13, 2-{4-[4-(7-Fluoro-naphthalen-1-yl)-piperazin-1-yl]-butoxy}-4,8-dimethyl-8H-pyrido[2,3-d]pyrimidin-7-one]", "Ki": 15.4}, {"smiles": "O=C1CCc2ccc(OCCCCN3CCN(c4cccc5c4CCCCC5)CC3)nc2N1", "note": "[Example A63, 7-{4-[4-(6,7,8,9-Tetrahydro-5H-benzocyclohepten-1-yl)-piperazin-1-yl]-butoxy}-3,4-dihydro-1H-[1,8]naphthyridin-2-one]", "Ki": 35}, {"smiles": "O=c1[nH]c2nc(OCCCCN3CCN(c4cccc(Cl)c4Cl)CC3)ccc2cc1F", "note": "[Example D9, 7-{4-[4-(2,3-Dichloro-phenyl)-piperazin-1-yl]-butoxy}-3-fluoro-1H-[1,8]naphthyridin-2-one]", "Ki": 1}, {"smiles": "Cc1c(C)c2ccc(CCCCCN3CCN(c4cccc(Cl)c4Cl)CC3)nc2[nH]c1=O", "note": "[Example D8, 7-{5-[4-(2,3-Dichloro-phenyl)-piperazin-1-yl]-pentyl}-3,4-dimethyl-1H-[1,8]naphthyridin-2-one]", "Ki": 2.2}, {"smiles": "CC1(C)OC(=O)Nc2nc(CCCCCN3CCN(c4cccc(Cl)c4Cl)CC3)ccc21", "note": "[Example F9, 7-{5-[4-(2,3-Dichloro-phenyl)-piperazin-1-yl]-pentyl}-4,4-dimethyl-1,4-dihydro-pyrido[2,3-d][1,3]oxazin-2-one]", "Ki": 3.9}, {"smiles": "CC1(C)C(=O)Nc2nc(OCCCCN3CCN(c4cccc(Cl)c4Cl)CC3)ccc2C1=O", "note": "[Example D14, 7-{4-[4-(2,3-Dichloro-phenyl)-piperazin-1-yl]-butoxy}-3,3-dimethyl-1H-[1,8]naphthyridine-2,4-dione]", "Ki": 0.4}, {"smiles": "O=C1CCc2c(C(F)(F)F)cc(OCCCCN3CCN(c4cccc5ccccc45)CC3)nc2N1", "note": "[Example E14, 7-[4-(4-Naphthalen-1-yl-piperazin-1-yl)-butoxy]-5-trifluoromethyl-3,4-dihydro-1H-[1,8]naphthyridin-2-one]", "Ki": 28.5}, {"smiles": "O=C1CCc2cnc(OCCCCN3CCN(c4cccc5ccccc45)CC3)cc2N1", "note": "[Example I3, 7-[4-(4-Naphthalen-1-yl-piperazin-1-yl)-butoxy]-3,4-dihydro-1H-[1,6]naphthyridin-2-one]", "Ki": 14.5}, {"smiles": "CCOc1cccc(N2CCN(CCCCOc3ccc4ccc(=O)[nH]c4n3)CC2)c1Cl", "note": "[Example B19, 7-{4-[4-(2-Chloro-3-ethoxy-phenyl)-piperazin-1-yl]-butoxy}-1H-[1,8]naphthyridin-2-one]", "Ki": 4.6}]}, {"target": "dopamine D2 receptor (Homo sapiens, UniProt P14416)", "test": "biochemical", "settings": "D2 Ki (nM), Table 2; 0.4 nM [3H]spiperone, CHO-hD2L membranes", "units": {"Ki": "nM"}, "values": [{"smiles": "Cc1nc(OCCCCN2CCN(c3cccc4c3OCCO4)CC2)nc2[nH]c(=O)ccc12", "note": "[Example G10′, 2-{4-[4-(2,3-Dihydro-benzo[1,4]dioxin-5-yl)-piperazin-1-yl]-butoxy}-4-methyl-8H-pyrido[2,3-d]pyrimidin-7-one]", "Ki": 1}, {"smiles": "CN(C)c1ccc2cccc(N3CCN(CCCCOc4ccc5ccc(=O)[nH]c5n4)CC3)c2n1", "note": "[Example B32′, 7-{4-[4-(2-Dimethylamino-quinolin-8-yl)-piperazin-1-yl]-butoxy}-1H-[1,8]naphthyridin-2-one]", "Ki": 1.4}, {"smiles": "COc1ccc2cccc(N3CCN(CCCCOc4ccc5ccc(=O)[nH]c5n4)CC3)c2n1", "note": "[Example B30′, 7-{4-[4-(2-Methoxy-quinolin-8-yl)-piperazin-1-yl]-butoxy}-1H-[1,8]naphthyridin-2-one]", "Ki": 1}, {"smiles": "O=C1CCc2ccc(OCCCCN3CCN(c4cccc5c4OCCCO5)CC3)nc2N1", "note": "[Example A17′, 7-{4-[4-(3,4-Dihydro-2H-benzo[b][1,4]dioxepin-6-yl)-piperazin-1-yl]-butoxy}-3,4-dihydro-1H-[1,8]naphthyridin-2-one]", "Ki": 1}, {"smiles": "CC1(C)CC(=O)Nc2nc(OCCCCN3CCN(c4cccc5cccnc45)CC3)ccc21", "note": "[Example C1′, 4,4-Dimethyl-7-[4-(4-quinolin-8-yl-piperazin-1-yl)-butoxy]-3,4-dihydro-1H-[1,8]naphthyridin-2-one]", "Ki": 6.2}, {"smiles": "CCOc1ccc2cccc(N3CCN(CCCCOc4ccc5c(n4)NC(=O)CC5)CC3)c2n1", "note": "[Example A42′, 7-{4-[4-(2-Ethoxy-quinolin-8-yl)-piperazin-1-yl]-butoxy}-3,4-dihydro-1H-[1,8]naphthyridin-2-one]", "Ki": 0.7}, {"smiles": "CC1C=Cc2cccc(N3CCN(CCCCOc4ccc5c(n4)NC(=O)CC5)CC3)c2O1", "note": "(stereo not shown) [Example A9′, 7-{4-[4-(2-Methyl-2H-chromen-8-yl)-piperazin-1-yl]-butoxy}-3,4-dihydro-1H-[1,8]naphthyridin-2-one]", "Ki": 1}, {"smiles": "CC1(C)CCc2cccc(N3CCN(CCCCOc4ncc5ccc(=O)[nH]c5n4)CC3)c2O1", "note": "[Example G6′, 2-{4-[4-(2,2-Dimethyl-chroman-8-yl)-piperazin-1-yl]-butoxy}-8H-pyrido[2,3-d]pyrimidin-7-one]", "Ki": 0.7}, {"smiles": "O=C1NCc2ccc(OCCCCN3CCN(c4cccc5c4OCCCO5)CC3)nc2N1", "note": "[Example E4′, 7-{4-[4-(3,4-Dihydro-2H-benzo[b][1,4]dioxepin-6-yl)-piperazin-1-yl]-butoxy}-3,4-dihydro-1H-pyrido[2,3-d]pyrimidin-2-one]", "Ki": 0.4}, {"smiles": "O=c1ccc2cnc(OCCCCN3CCN(c4cccc5c4OCC5)CC3)cc2[nH]1", "note": "[Example H6′, 7-{4-[4-(2,3-Dihydro-benzofuran-7-yl)-piperazin-1-yl]-butoxy}-1H-[1,6]naphthyridin-2-one]", "Ki": 6.5}, {"smiles": "CC1(C)Cc2cccc(N3CCN(CCCCOc4ccc5ccc(=O)[nH]c5n4)CC3)c2O1", "note": "[Example B9′, 7-{4-[4-(2,2-Dimethyl-2,3-dihydro-benzofuran-7-yl)-piperazin-1-yl]-butoxy}-1H-[1,8]naphthyridin-2-one]", "Ki": 1}, {"smiles": "O=C1CCc2ccc(OCCCCN3CCN(c4cccc5nsnc45)CC3)nc2N1", "note": "[Example A30′, 7-[4-(4-Benzo[1,2,5]thiadiazol-4-yl-piperazin-1-yl)-butoxy]-3,4-dihydro-1H-[1,8]naphthyridin-2-one]", "Ki": 8.9}, {"smiles": "O=C1CCc2ccc(OCCCCN3CCN(c4cccc5c4OC4(CCCC4)CC5)CC3)nc2N1", "note": "[Example A8′, 7-{4-[4-(3,4-Dihydrospiro[chromene-2,1′-cyclopentan]-8-yl)-piperazin-1-yl]-butoxy}-3,4-dihydro-1H-[1,8]naphthyridin-2-one]", "Ki": 1.4}, {"smiles": "CCOc1ccc2cccc(N3CCN(CCCCOc4ccc5ccc(=O)[nH]c5n4)CC3)c2n1", "note": "[Example B31′, 7-{4-[4-(2-Ethoxy-quinolin-8-yl)-piperazin-1-yl]-butoxy}-1H-[1,8]naphthyridin-2-one]", "Ki": 0.6}]}]}
